# Hit rate of the full screen: of about 48,000 compounds, about 450 (0.94%) were called active. Not shown: some 19% with an inconclusive outcome. Calls follow the shape of the dose curve; as a rule, active = well fitted inhibition curve with a large enough effect; inconclusive = small, poorly fitted or top-dose-only effect; inactive = no such curve, though single readings can be large or run the other way. The list shows a part of the results.
# Assay: Primary qHTS for Identification of Small Molecule Inhibitors of Huntingtin Promoter Activity; also: nearly all actives have a fitted effect of over 50% in size
# Details: HEK293 HTT promoter firefly luciferase reporter (activity 0% = vehicle and -100% = no light), 24 h; series mostly up to 57.5 µM; activity change, negative = inhibition: at the top concentration
# Text: Assay Provider: Russell L. Margolis M.D.
# Department Neurology, Johns Hopkins University School of Medicine, Baltimore, MD
# Huntington's Disease (HD) is a neurodegenerative disorder caused by a CAG repeat expansion in exon 1 of huntingtin (HTT). While there are currently no disease-modifying treatments for HD, recent efforts have focused on development of nucleotide-based therapeutics to lower HTT expression. As an alternative to siRNA or oligonucleotide methods, we hypothesized that suppression of HTT expression might be accomplished by small molecules that either (1) directly decrease HTT expression by suppressing HTT promoter activity or (2) indirectly decrease HTT expression by increasing the promoter activity of HTT-AS, the gene antisense to HTT that appears to inhibit expression of HTT.
# We developed and employed a high throughput screen for modifiers of HTT and HTT-AS promoter activity using luminescent reporter HEK293 cells; of the 52,041 compounds tested, we identified 898 replicable hits. We used a rigorous stepwise approach to assess compound toxicity and the capacity of the compounds to specifically lower huntingtin protein in 5 different cell lines, including HEK293 cells, HD lymphoblastoid cells, mouse primary neurons, HD iPSCs differentiated into cortical-like neurons, and HD hESCs. We found no compounds which were able to lower huntingtin without lowering cell viability in all assays, though the potential efficacy of a few compounds at non-toxic doses could not be excluded.
# SEQUENCE No. (1, 2, 3, etc.); […] (e.g., Cells, Incubation, Reagent, etc.); VALUE and DESCRIPTION.
# 1; Reagent; 4 uL; 2,500 Hek293 luciferase reporter cells per wells
# 3; Compound; 23 nL; Control inhibitor / compound library
# 5; Reagent; 2.5 uL; Firefly Luc reagent; Dual-Glo Luciferase Reporter Assay System (Promega)
# 6; Time; 10 min; room temperature incubation
# 7; Detection; Luminescence; FLuc
# NOTES (numbers refer to sequence above)
# 1; High-throughput screening, measuring luminescence from a Hek293 luciferase reporter, was performed in 1,536 well white-walled tissue-culture treated plates. 2,500 cells were plated in 4 µL of Opti-MEM per well using a Multidrop Combi Reagent Dispenser (ThermoFisher).
# 2; Assay plates were cultured for 24 hours.
# 3; Control inhibitor (PTC124; final concentration of 50 uM) and compound library (at final concentrations of 460 nM - 57.5 uM) were added to the assay plate using the Kalypsis Pintool Robotic System equipped with 1536 pinheads.
# 4; Cells were then incubated for 24 hours at 37 degrees C prior to luminescence measurements.
# 5; In all cases, luminescence was measured using the Dual-Glo Luciferase Reporter Assay System (Promega) following the manufacturer's instructions.
# 6; Room temperature incubation.
# 7; Luminescence signal was obtained using the PerkinElmer ViewLux plate reader. Results were normalized to vehicle control (0% activity) and zero RLU (-100% activity).
row,SMILES,"activity change, negative = inhibition"
1,COc1cccc(NS(=O)(=O)c2ccc3[nH]cc(C(=O)N(C)Cc4ccco4)c(=O)c3c2)c1,inactive: 5.68%
2,Cn1c(=O)c2c(c3ccccc31)OC(=O)CC2c1ccccc1 (stereo not drawn),inactive: -6.4%
3,O=c1c2ccccc2n2c(-c3cccc(F)c3)nnc2n1Cc1ccccc1,inactive: 0.13%
4,COc1ccc(NC(=O)c2ccc3c(=O)n4nc(Nc5ccccc5C)sc4nc3c2)cc1,inactive: -21.3%
5,CCOC(=O)N1CCN(C(=O)c2cnn(-c3cccc(C)c3)c2-n2cccc2)CC1,inactive: -22.3%
6,C1=CC2C3C=CC(C3)C2C1 (stereo not drawn),inactive: 11.1% [at 116 µM]
7,CN(C)c1ccc(-c2nc3ccccn3c2Nc2ccc3c(c2)OCCO3)cc1,inactive: 41.4%
8,Cc1cccc(N2CCN(C(=O)c3c4c(nc5ccccc35)C(=O)N(C3CCCCC3)C4)CC2)c1C,inactive: -6.7%
9,COc1ccc(OC)c(NC(=O)c2cc3c(=O)n4cccc(C)c4nc3n2C)c1,inactive: -5.23%
10,Cc1ccc(N(C)C(=O)c2noc3c2CCCCC3)cc1C,inactive: -17.6%
11,Cc1ccc(CC(=O)NCc2nc(-c3cccc(C)c3)no2)cc1,inactive: -5.74%
12,Cc1cccc(C)c1OCc1cc(=O)n2ccsc2n1,inactive: -3.6%
13,COc1cccc(NC(=O)CSc2nnc(NC(=O)NC3CCCCC3)s2)c1,inactive: 28.7%
14,O=C(Cn1c(=O)c2sccc2n(CC(=O)Nc2ccc(Cl)cc2Cl)c1=O)NCCc1ccccc1,inactive: -12.5%
15,CCCN1Cc2cccc(C(=O)Nc3ccc(OC)cc3OC)c2C1=O,inactive: -14%
16,COc1cccc(C(=O)c2cn(CC(=O)Nc3cccc(Cl)c3C)c3nc(C)ccc3c2=O)c1,inactive: -5.91%
17,COCCN1C(=O)c2oc3ccc(C)cc3c(=O)c2C1c1ccc(C(=O)OC)cc1 (stereo not drawn),inactive: 2.04%
18,CSc1ncc(C(=O)NCc2cccc(Br)c2)c(-c2ccccc2)n1,inactive: -1.8%
19,COc1ccc(CNS(=O)(=O)c2ccc3c(c2)C(C)(C)C(=O)N3C)cc1OC,inactive: -23.2%
20,O=C(NCc1ccccc1F)C(=O)NCC(c1ccco1)S(=O)(=O)c1ccccc1 (stereo not drawn),inactive: -24.1%
21,Cc1ccc(C(C)C)c(OCC(=O)Nc2ccc(-c3nc4ncccc4o3)cc2C)c1,inactive: -12.1%
22,COc1ccc(C(C(=O)NCc2ccccc2)N(C(=O)Cn2nnc3ccccc32)c2ccc(OC)cc2)cc1 (stereo not drawn),inactive: -10.7%
23,O=C1CC(=O)Nc2cc(S(=O)(=O)Nc3cccc(Br)c3)ccc2N1,inactive: -11.7%
24,COC(=O)c1cc2sc(Cl)cc2n1Cc1nc(-c2ccccc2F)oc1C,inactive: -3.37%

row,SMILES,"activity change, negative = inhibition"
1,Cc1ccc(CCNC(=O)c2ccc(CNS(=O)(=O)c3ccc(F)cc3)cc2)cc1,inactive: 6.86%
2,CC(=O)N1CCc2c(sc(NC(=O)CSc3ccc(C)cc3)c2-c2nc3ccccc3s2)C1,inactive: 3.97%
3,Cc1cc(C)c2c(n1)SCC(=O)N2CC(=O)Nc1c(C)cccc1C,inactive: -12.9%
4,Cc1cc(C)cc(NC(=O)Nc2c[nH]c(=O)[nH]c2=O)c1,inactive: -3.96%
5,O=C(NC1(C(F)(F)F)N=C(c2ccccc2)N(C2CCCCC2)C1=O)c1ccccc1F (stereo not drawn),inactive: -43.4% [at 11.5 µM]
6,Cc1ccc(-c2cc(-c3coc4ccccc4c3=O)c3c(n2)-c2cc(Cl)ccc2OC3)cc1,inactive: -5.15%
7,COc1ccccc1NC(=O)Cn1c(SCC(=O)NCc2ccccc2)nc2ccccc21,inactive: -31.4%
8,Cc1cc(C)cc(NC(=O)NCC2CCN(Cc3cc(C)ccc3C)CC2)c1,inactive: -14%
9,CC(=O)Nc1ccc(-c2nnc3n(CC(C)C)c(=O)c4ccccc4n23)cc1,inactive: 4.22%
10,COc1ccc(CCC(=O)NCCc2csc(-c3cccc(F)c3)n2)cc1,inactive: -22.4%
11,COc1ccc(NC(=O)c2oc3ccc4c(c3c2C)C(=O)CC(C)(C)O4)cc1OC,inactive: 39.1%
12,CCNC(=O)Nc1ccc2ncc(Nc3ccc(C)cc3)nc2n1,inactive: 11.7%
13,COc1cc2c(cc1NC(=O)C(C)Oc1ccc(Cl)cc1Cl)oc1ccccc12 (stereo not drawn),inactive: -3.32%
14,COc1cc(-c2nnc(SCC(=O)N(C)C3CCCCC3)o2)cc(OC)c1OC,inactive: -19.9%
15,Cc1ccc(CCNC(=O)CCCn2nc(C)c3c(C)n(-c4ccc(C)cc4)nc3c2=O)cc1,inactive: -24.1%
16,Cc1ccc(OCC(=O)OCc2cc(=O)n3nc(C4CCCCC4)sc3n2)cc1,inactive: -18.5%
17,CCN(c1ncnc2c1c(-c1ccccc1)cn2-c1ccccc1)C1CCCCC1,inactive: -4.32%
18,COc1ccc(N(C(=O)c2ccccc2C)S(=O)(=O)c2ccc3c(c2)n(C)c(=O)n3C)cc1,inactive: 2.52%
19,COc1ccc(OC)c(CCNC(=O)c2sc3nc4n(c(=O)c3c2C)CCCC4)c1,inactive: 0.731%
20,CCOc1ccccc1NS(=O)(=O)c1c(C(=O)OC)sc2cccc(F)c12,inactive: 0%
21,CCNc1c(NC(=O)c2ccccc2OCC)c(=O)oc2ccccc12,inactive: -8.59%
22,CCOC(=O)C1=C(CNCc2ccccc2)NC(=O)NC1c1ccc(C)cc1 (stereo not drawn),inactive: -13.7%
23,Cc1ccc(N2C(=O)[C@@H]3CSC(c4ccc(C(F)(F)F)cc4)N3C2=O)cc1 (stereo partly drawn),inactive: -3.84%
24,Cc1ccc(S(=O)(=O)N2CCCc3cc(NC(=O)c4ccc(C(F)(F)F)cc4)ccc32)cc1,inactive: -34.3%
